# Measured values reported in PubChem BioAssay AID504332 (National Center for Advancing Translational Sciences (NCATS), 2011).
# In all, about 350,000 compounds went through this assay and about 31,000 (8.9%) were called active. This list was built around the results that the source calls inconclusive (neither active nor inactive); the mix of calls is not that of the screen. Calls come from the whole dose curve; as a rule, active = well fitted inhibition curve with a large enough effect; inconclusive = small, poorly fitted or top-dose-only effect; inactive = no such curve, though single readings can be large or run the other way. Potencies beside an inconclusive call are fits to weak or partial responses and may not hold up.
# Target: Histone-lysine N-methyltransferase EHMT2 (Homo sapiens) (UniProt Q96KQ7)
# UniProt Q96KQ7, sequence (Q96KQ7 whole entry, looked up): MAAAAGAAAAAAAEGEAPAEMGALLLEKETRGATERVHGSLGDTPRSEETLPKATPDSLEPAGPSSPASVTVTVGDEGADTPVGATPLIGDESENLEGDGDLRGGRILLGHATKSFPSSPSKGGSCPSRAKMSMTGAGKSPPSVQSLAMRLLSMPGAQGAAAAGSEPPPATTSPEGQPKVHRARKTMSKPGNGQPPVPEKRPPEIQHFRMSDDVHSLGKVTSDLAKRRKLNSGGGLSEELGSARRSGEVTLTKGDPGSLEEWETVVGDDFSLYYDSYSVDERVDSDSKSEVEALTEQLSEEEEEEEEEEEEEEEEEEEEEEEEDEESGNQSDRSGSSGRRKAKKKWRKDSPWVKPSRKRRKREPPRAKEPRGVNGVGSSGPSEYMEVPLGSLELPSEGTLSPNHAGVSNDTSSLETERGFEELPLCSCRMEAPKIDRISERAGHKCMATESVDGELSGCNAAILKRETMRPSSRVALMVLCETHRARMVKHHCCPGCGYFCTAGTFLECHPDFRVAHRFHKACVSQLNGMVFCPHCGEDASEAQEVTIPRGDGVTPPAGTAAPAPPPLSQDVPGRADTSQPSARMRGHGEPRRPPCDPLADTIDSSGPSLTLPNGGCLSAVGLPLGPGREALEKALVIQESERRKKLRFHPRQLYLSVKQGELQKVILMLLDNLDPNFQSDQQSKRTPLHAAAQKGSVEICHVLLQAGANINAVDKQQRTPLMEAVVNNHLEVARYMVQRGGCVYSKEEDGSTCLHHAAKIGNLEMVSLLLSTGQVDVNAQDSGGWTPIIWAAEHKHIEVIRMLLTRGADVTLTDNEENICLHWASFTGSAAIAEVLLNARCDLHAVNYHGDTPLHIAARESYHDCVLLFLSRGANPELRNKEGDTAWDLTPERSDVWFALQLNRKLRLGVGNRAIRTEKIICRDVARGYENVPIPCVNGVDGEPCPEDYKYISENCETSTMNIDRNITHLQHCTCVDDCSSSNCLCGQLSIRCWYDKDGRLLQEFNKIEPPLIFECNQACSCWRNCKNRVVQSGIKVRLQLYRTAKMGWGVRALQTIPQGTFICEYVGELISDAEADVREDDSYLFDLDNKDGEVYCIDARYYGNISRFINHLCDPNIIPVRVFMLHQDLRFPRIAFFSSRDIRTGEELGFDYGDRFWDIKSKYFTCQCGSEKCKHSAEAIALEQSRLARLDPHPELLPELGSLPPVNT
# Test: qHTS Assay for Inhibitors of Histone Lysine Methyltransferase G9a; note: nearly all actives have a fitted effect of over 75% in size
# Details: G9a H3K9 monomethylation, AlphaScreen, 2 h; activity, negative = inhibition: at 59 µM (top of the series) unless noted
# Procedure, shortened: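 Methyltransferase reactions run at room temperature for 2 h (20 nM enzyme, 500 nM biotin-H3K9 peptide, 20 uM SAM) after a 15 min compound preincubation; product detected by AlphaScreen beads and anti-H3K9me1 antibody.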
# % is set by controls: 0 for no effect and ±100 for the full control effect; potency is the fitted concentration of half-maximal effect; tags give direction and shape of the fitted curve.
Compound,Potency,"activity, negative = inhibition"
CN(C)CCNC(=O)/C(=N\O)c1ccccn1,active: 50.1 µM,–
O=C(/C=N/O)NCc1cccnc1,"inconclusive: 35.5 µM [inhibitor, partial curve]",–
CCNCCOC(c1ccccc1)c1ccccc1,"inconclusive: 15.8 µM [inhibitor, partial curve]",–
CCc1ccccc1NC(=O)CSc1nc(-c2ccccc2)nn1C(=O)c1cccc([N+](=O)[O-])c1,inactive,–
CCOC(=O)c1c(N)sc2c(O)c(Br)ccc12,"inconclusive: 0.891 µM [inhibitor, full curve, poor fit]",–
CC(C)OC(=O)c1cccc(-c2ccc(C=O)o2)c1,"inconclusive: 7.94 µM [inhibitor, partial curve, poor fit]",–
CN(C)c1ccc(/C=N\NC(=S)SCN2C(=O)C3CCC(C)(C2=O)C3(C)C)cc1 (centres undefined),"inconclusive: 35.5 µM [inhibitor, single point]",–
CCCn1c(CCc2ccccc2)n[nH]c1=S,active: 39.8 µM,–
Cc1cccc(-n2c(SCc3cc(=O)n4c(C)cccc4n3)nc3[nH]ncc3c2=O)c1,"inconclusive: 39.8 µM [inhibitor, single point]",–
CCCN(c1ccccc1F)S(=O)(=O)c1c[nH]c(C(=O)OC)c1,inactive,–
O=C(COc1ccc(Cl)cc1)OCc1cc(=O)n2nc(-c3cccs3)sc2n1,inactive,–
FC(F)(F)c1ccccc1-c1nccc(NCCN2CCOCC2)n1,–,inactive: 0.733% [at 0.501 µM]
CCOC(=O)c1c(NC(=O)COC(=O)c2ncc(Cl)c(Cl)c2Cl)sc(C(=O)N(C)C)c1C,"inconclusive: 50.1 µM [inhibitor, partial curve]",–
C=C1Cn2c(nnc2-c2ccc(Cl)cc2)S1,"inconclusive: 89.1 µM [inhibitor, single point]",–
CCCOc1ccc(C(=O)CCN2CCN(C(=O)OCC)CC2)cc1,active: 10 µM,–
Cc1ccc(N2C(=O)[C@@H]3[C@H](C2=O)[C@H]2C=CC=NN2[C@@H]3C(=O)Nc2ccccc2)cc1,active: 7.08 µM,–
COC(=O)c1ccccc1NC(=O)C1CC(c2ccccc2O)=NO1 (centres undefined),–,inconclusive: -56.9% [inhibitor]
O=C(Nc1nnc(S(=O)(=O)N2CCN(c3ccc(F)cc3)CC2)s1)c1ccccc1,"inconclusive: 63.1 µM [inhibitor, single point]",–
O=C(O)CC(C(=O)O)N1C(=O)/C(=C/C=C/c2ccco2)SC1=S (centres undefined),inactive,–
COC(=O)c1ccc(OCCN2CCCCCC2)cc1,active: 35.5 µM,–
O=C(Cn1cc[n+](Cc2ccccc2)c1)c1ccc([N+](=O)[O-])cc1,"inconclusive: 89.1 µM [inhibitor, single point]",–
COc1cccc(C(=O)N2CCc3c([nH]c4ccccc34)C2c2ccc(SC)cc2)c1 (centres undefined),"inconclusive: 10 µM [inhibitor, partial curve]",–
O=C(COC(=O)c1cc2ccccc2oc1=O)Nc1cccc(S(=O)(=O)N2CCCCCC2)c1,inactive,–
Cc1ccccc1CNC(=O)CN(c1ccccc1Cl)S(C)(=O)=O,inactive,–
CCn1c(=O)cc(SCC(=O)NCc2ccco2)c2ccccc21,inactive,–

Compound,Potency,"activity, negative = inhibition"
Cc1ccc(SCC(=O)Nc2ccc(F)cc2[N+](=O)[O-])cc1C,"inconclusive: 39.8 µM [inhibitor, single point]",–
O=C(CNc1ccc2ccccc2c1)N/N=C/c1ccncc1,active: 1.41 µM,–
O=C(O)c1ccc(NC(=O)c2cccc(N3C(=O)C4C5CCC(C5)C4C3=O)c2)cc1 (centres undefined),inactive,–
Cc1ccnc(NC(=O)c2ccc3c(c2)S(=O)(=O)c2ccccc2C3=O)c1,–,inconclusive: -53.9% [inhibitor]
Cc1cc(NS(=O)(=O)c2ccc(NS(=O)(=O)c3cc(C)c(Cl)cc3Cl)cc2)no1,–,inactive: -7.74% [at 12.7 µM]
COc1ccc(-c2cc3ccc(OCC(C)=O)cc3oc2=O)cc1OC,inactive,–
COc1ccccc1NC(=O)CSc1nnc2c3ccccc3n(C(C)C)c2n1,inactive,–
c1csc(-c2nc3ccccn3c2NC2CCCCC2)c1,"inconclusive: 44.7 µM [inhibitor, partial curve, poor fit]",–
OCCN(Cc1ccccc1)Cc1ccc(Cl)cc1Cl,active: 7.08 µM,–
CC1CCCCN1CCCOC(=O)c1ccccc1 (centres undefined),"inconclusive: 1.26 µM [inhibitor, partial curve, poor fit]",–
CCOc1ccc(CCNC(=O)c2csc3c2CCCCC3)cc1,inactive,–
Cc1[nH]n(-c2ccccc2)c(=O)c1N=Nc1ccccc1O,"inconclusive: 3.16 µM [inhibitor, full curve]",–
Cc1ccc(C2NC(=O)c3c(sc4c3CCN(C)C4)N2)o1 (centres undefined),inactive,–
Cc1[nH]nc(SCC(=O)N2CCCCCC2)c1[N+](=O)[O-],"inconclusive: 50.1 µM [inhibitor, partial curve, poor fit]",–
C=CCN(c1ccc(C(=O)Nc2ccc3c(c2)OCO3)cc1)S(C)(=O)=O,"inconclusive: 50.1 µM [inhibitor, partial curve, poor fit]",–
COc1cc2c3nnc(-c4ccc(F)cc4)c-3cn(Cc3ccccc3F)c2cc1OC,"inconclusive: 89.1 µM [inhibitor, single point]",–
CSc1nsc(SC)c1NC(=O)Nc1ccccc1C,inactive,–
Cn1c(=O)oc2cc(S(=O)(=O)NCCC(=O)Nc3ccc4c(c3)OCCO4)ccc21,"inconclusive: 89.1 µM [inhibitor, partial curve, poor fit]",–
COC(=O)c1ccccc1N1C(=O)[C@@H]2C(c3ccc(Br)cc3)=NO[C@@H]2C1=O,"inconclusive: 1.78 µM [inhibitor, partial curve, poor fit]",–
CCOC(=O)c1cc(-c2ccccc2)n(CCC(=O)NC2CCCCC2)c1C,"inconclusive: 31.6 µM [inhibitor, partial curve, poor fit]",–
O=C(O)c1cccn2c(=O)c3ccccc3nc12,"inconclusive: 35.5 µM [inhibitor, single point]",–
O=C(NNc1ccc(Cl)nn1)c1ccc(Cl)cc1,"inconclusive: 89.1 µM [inhibitor, single point]",–
O=C1NC(C(=O)O)=CC(c2ccc([N+](=O)[O-])cc2)N1 (centres undefined),active: 8.91 µM,–
COC(=O)c1c(N)sc(C(=O)NCCc2ccccc2)c1C,"inconclusive: 31.6 µM [inhibitor, single point]",–
O=C(CCc1nnc(-c2ccccc2)o1)NCC1CCN(C2CCCC2)CC1,inactive,–

Compound,Potency,"activity, negative = inhibition"
Cc1ccc(CNc2ncnc3c2nc2n3CCCC2)cc1,inactive,–
COc1ccc(/C(C)=N/OCC(=O)N=Nc2c(O)[nH]c3ccccc23)cc1,"inconclusive: 8.91 µM [inhibitor, partial curve, poor fit]",–
CC(=O)c1ccc2c(c1)Nc1ccccc1S2,active: 2.82 µM,–
CCOC(=O)CSc1nnc(CNC(=O)c2cccs2)n1Cc1ccccc1,"inconclusive: 89.1 µM [inhibitor, partial curve, poor fit]",–
O=C(CCc1ccccc1)NC1(Cc2ccccc2)CCN(CCCc2ccccc2)C1=O (centres undefined),–,inactive: -0.978% [at 0.501 µM]
Cc1ccc(C(=O)N/C(=C/c2ccco2)C(=O)NCC2CCCO2)cc1 (centres undefined),inactive,–
CCCC(=O)Nc1cc(C(=O)O)ccc1Sc1ccc(C)cc1,active: 44.7 µM,–
COC(=O)c1ccc(NC(=S)NC(=O)C2CCC2)cc1,active: 79.4 µM,–
CC#CCN(Cc1ccco1)C(=O)c1ccc(OC2CCN(Cc3ccccn3)CC2)cc1,"inconclusive: 4.47 µM [inhibitor, full curve, poor fit]",–
CC(=O)N1N=C(c2ccc(Br)cc2)CC1c1cn(C)c2ccccc12 (centres undefined),"inconclusive: 22.4 µM [inhibitor, single point]",–
Cc1c(C(=O)NC(c2ccccn2)C(F)(F)F)oc2c(F)cccc12 (centres undefined),inactive,–
COc1cc2c(cc1OC)C1=C(C#N)CCC(=NC(=O)c3ccco3)N1CC2,inactive,–
CCN(CC)CCN1C(=O)C(=O)/C(=C(/O)c2c(C)[nH]c(C(=O)OC)c2C)C1c1ccc(C)o1 (centres undefined),active: 35.5 µM,–
COc1ccc(/C=C(/C#N)c2nc(-c3ccc(-c4ccccc4)cc3)cs2)cc1OC,"inconclusive: 39.8 µM [inhibitor, partial curve, poor fit]",–
O=C(NC(=S)N1CCN(c2ccc([N+](=O)[O-])cc2)CC1)c1ccccc1F,"inconclusive: 3.55 µM [inhibitor, single point]",–
CS(=O)(=O)N1CCN=C1SCc1ccc(F)cc1,inactive,–
Cc1cccc(NC(=O)CNC(=O)COc2cc(F)ccc2[N+](=O)[O-])c1C,"inconclusive: 39.8 µM [inhibitor, single point]",–
O=C(COC(=O)CCC1CCCC1)NCc1ccc(Cl)cc1,inactive,–
COc1ccc(CNC(=O)C2CC=CCC2C(=O)O)cc1OC (centres undefined),inactive,–
COC(=O)c1sc(N2C(=O)C(O)=C(C(=O)c3ccc(C)o3)C2c2cccs2)nc1C (centres undefined),active: 10 µM,–
CCCc1cc(=O)oc2c(C)c(OCC(=O)Nc3ccc(CN4CCOCC4)cc3)ccc12,"inconclusive: 89.1 µM [inhibitor, single point]",–
O=C(NCC(c1ccco1)N1CCc2ccccc2C1)c1cccc(Br)c1 (centres undefined),inactive,–
O=C(NC(=S)Nc1ccc(Oc2ccccc2)cc1)c1ccc(Cl)cc1,"inconclusive: 8.91 µM [inhibitor, partial curve]",–
Cc1cc(NC(=O)COC(=O)[C@H](Cc2c[nH]c3ccccc23)NC(=O)c2ccc(F)cc2)no1,"inconclusive: 89.1 µM [inhibitor, single point]",–
